{"source": "PubChem BioAssay (Tox21)", "key": {"[1]": {"test": "qHTS RealTime-Glo MT Cell Viability Assay in HEK293 cells - 16 hour (AID 1224872); further: nearly all actives have a fitted effect of over 50% in size; on activity change, negative = cytotoxicity: top concentration of the series differs between compounds; on the % scale 0 is the no-effect control and ±100 the full control effect", "outline": "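HEK293 cells seeded with NanoLuc/prosubstrate reagent, rested 5 h at 37 C, then dosed and kept at 37 C up to 40 h. Nonlytic real-time luminescence from viable cells read at 0, 8, 16, 24, 32 and 40 h.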"}, "[2]": {"test": "A CellTox Green Cytotoxicity Assay to monitor cytotoxicity in HEK293 cells - 40 hour (AID 1224871); further: nearly all actives have a fitted effect of over 45% in size", "outline": "(§1)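 HEK293 cells premixed with CellTox Green dye were seeded at 600 cells/well and left 5 h at 37 C/5% CO2 before pin transfer of 23 nL compound in DMSO. Fluorescence from dye bound to dead-cell DNA was read during 40 h treatment.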"}, "[3]": {"test": "A CellTox Green Cytotoxicity Assay to monitor cytotoxicity in HepG2 cells - 40 hour (AID 1224879)", "outline": "(§2)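 HepG2 cells were seeded together with the CellTox Green dye at 600 cells/well, left 5 h at 37 C/5% CO2, then given compounds in DMSO. Fluorescence from dye bound to dead-cell DNA was read repeatedly over 40 h of treatment at 37 C.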"}, "[4]": {"test": "qHTS RealTime-Glo MT Cell Viability Assay in HepG2 cells - 8 hour (AID 1224873)", "outline": "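HepG2 cells (600/well) mixed with RealTime-Glo MT reagent, settled 5 h at 37 C/5% CO2 before compound addition. Nonlytic NanoLuc luminescence from viable-cell prosubstrate reduction read repeatedly during 40 h treatment at 37 C.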"}, "[5]": {"test": "qHTS RealTime-Glo MT Cell Viability Assay in HEK293 cells - 40 hour (AID 1224874)", "details": "RealTime-Glo luminescence; max response: stronger effect = lower value", "outline": "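HEK293 cells mixed with RealTime-Glo reagents (NanoLuc plus cell-permeant prosubstrate) at 600 cells/well, preincubated 5 h at 37 C/5% CO2, then given 23 nL compound in DMSO. Nonlytic luminescence from viable cells was read at 0, 8, 16, 24, 32 and 40 h.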"}, "[6]": {"test": "A CellTox Green Cytotoxicity Assay to monitor cytotoxicity in HEK293 cells - 24 hour (AID 1224875)", "outline": "as §1"}, "[7]": {"test": "A CellTox Green Cytotoxicity Assay to monitor cytotoxicity in HepG2 cells - 16 hour (AID 1224876)", "outline": "as §2"}, "[8]": {"test": "qHTS RealTime-Glo MT Cell Viability Assay in HepG2 cells - 32 hour (AID 1224877)", "outline": "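HepG2 cells (600/well) were dispensed with RealTime-Glo reagents, incubated 5 h at 37 °C, then treated with compounds in DMSO for up to 40 h. Nonlytic NanoLuc luminescence reflecting viable cells was read at each stated time point.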"}}, "note": "Several values for one entry are separate records, joined by “and”; a condition that tells them apart may be missing. Equal values may be shown once. Inconclusive results, whose numbers are uncertain, are shown with a selection of clear calls. For part of these data: Potencies beside an inconclusive call are fits to weak or partial responses and may not hold up. Some structures have more than one record in an assay (separate samples or runs), and their calls can disagree. Activity calls are given as the source filed them. The call rests on the fitted dose curve; in most records, active means well fitted curve in the direction sought with a large enough effect in the repeat runs; inconclusive means weak or mixed curves; inactive means no such curve, though single readings can be large; an effect the other way counts as inactive or inconclusive. Potency means the concentration at half of the fitted maximal effect; tags describe the fitted curve by direction and shape.", "data": [{"smiles": "CCCCCCC(CO)CCCC", "note": "(stereo not given)", "values": [{"measurement": "Potency", "setting": "[1]", "result": "inactive"}]}, {"smiles": "CCCCCCCOC(=O)CCC", "values": [{"measurement": "Potency", "setting": "[1]", "result": "inactive"}]}, {"smiles": "O=[N+]([O-])c1cccc(S(=O)(=O)NCCNS(=O)(=O)c2cccc([N+](=O)[O-])c2)c1", "values": [{"measurement": "Potency", "setting": "[2]", "result": "inconclusive: 21.3 µM [activator, single point]"}, {"measurement": "Potency", "setting": "[3]", "result": "inconclusive: 26.8 µM [activator, single point]"}]}, {"smiles": "O=c1[nH]cnc2[nH]ncc12", "values": [{"measurement": "Potency", "setting": "[1]", "result": "inactive"}]}, {"smiles": "C=C(C)C(=O)OCCCCCCCCCCOC(=O)C(=C)C", "values": [{"measurement": "Potency", "setting": "[1]", "result": "inactive"}]}, {"smiles": "O=[N+]([O-])c1ccccc1CCO", "values": [{"measurement": "Potency", "setting": "[1]", "result": "inactive"}]}, {"smiles": "C=C(C)C(=O)OC(C)C", "values": [{"measurement": "Potency", "setting": "[1]", "result": "inactive"}]}, {"smiles": "C=C(C)C1CC=C(C)CC1", "note": "(stereo not given)", "values": [{"measurement": "Potency", "setting": "[1]", "result": "inactive"}]}, {"smiles": "CCCCCC1=CCCC1=O", "values": [{"measurement": "Potency", "setting": "[1]", "result": "inactive"}]}, {"smiles": "Nc1nc(=S)c2[nH]cnc2[nH]1", "values": [{"measurement": "Potency", "setting": "[1]", "result": "inconclusive: 53.5 µM [cytotoxic, single point] and inconclusive: 21.9 µM [cytotoxic, partial curve]"}]}, {"smiles": "CCCCC(CC)C(=O)O", "note": "(stereo not given)", "values": [{"measurement": "Potency", "setting": "[1]", "result": "inconclusive: 12.5 µM [cytotoxic, single point]"}]}, {"smiles": "CC(=O)c1c(C)c([N+](=O)[O-])c(C(C)(C)C)c([N+](=O)[O-])c1C", "values": [{"measurement": "Potency", "setting": "[1]", "result": "inconclusive: 34.7 µM [cytotoxic, partial curve, poor fit]"}]}, {"smiles": "C=CCCCCCCCCCCC", "values": [{"measurement": "activity change, negative = cytotoxicity", "setting": "[1]", "result": "inactive: 6.31% [at 6.97 µM]"}]}, {"smiles": "O=[N+]([O-])c1ccc2nc[nH]c2c1", "values": [{"measurement": "Potency", "setting": "[1]", "result": "inconclusive: 9.97 µM [rising, partial curve, poor fit]"}]}, {"smiles": "CCOC(=O)c1c(N)sc2c1CCN(Cc1ccccc1)C2", "values": [{"measurement": "Potency", "setting": "[1]", "result": "inconclusive: 21.3 µM [cytotoxic, partial curve]"}]}, {"smiles": "c1ccc2c(c1)c1cccc3ccc4cccc2c4c31", "values": [{"measurement": "Potency", "setting": "[1]", "result": "inconclusive: 19.5 µM [cytotoxic, partial curve]"}]}, {"smiles": "CC(=O)O[C@@H]1CC2CCC1(C)C2(C)C", "note": "(stereo not given in full)", "values": [{"measurement": "Potency", "setting": "[1]", "result": "inactive"}]}, {"smiles": "CO[C@@H]1[C@H](OC(=O)/C=C/C=C/C=C/C=C/C(=O)O)CC[C@]2(CO2)[C@H]1[C@@]1(C)O[C@@H]1CC=C(C)C", "values": [{"measurement": "Potency", "setting": "[1]", "result": "inconclusive: 43.6 µM [rising, partial curve]"}]}, {"smiles": "CCN(CC)c1ccc2c(-c3ccc(S(=O)(=O)O)cc3S(=O)(=O)[O-])c3ccc(=[N+](CC)CC)cc-3oc2c1", "values": [{"measurement": "Potency", "setting": "[1]", "result": "inactive"}]}, {"smiles": "Cc1oc(-c2ccccc2)nc1CCOc1cccc2c1ccn2CCC(=O)O", "values": [{"measurement": "Potency", "setting": "[1]", "result": "inactive"}]}, {"smiles": "COc1cccc2c1C(=O)c1c(O)c3c(c(O)c1C2=O)C[C@@](O)(C(=O)CO)C[C@@H]3O[C@H]1C[C@H](N)[C@H](O)[C@H](C)O1", "values": [{"measurement": "Potency", "setting": "[1]", "result": "inconclusive: 1.34 µM [cytotoxic, full curve]"}, {"measurement": "Potency", "setting": "[4]", "result": "inconclusive: 10.7 µM [falling, partial curve]"}, {"measurement": "Potency", "setting": "[5]", "result": "active: 97.6 nM and active: 190 nM"}, {"measurement": "Potency", "setting": "[6]", "result": "inconclusive: 26.8 µM [activator, partial curve, poor fit]"}, {"measurement": "Potency", "setting": "[7]", "result": "active: 21.3 µM"}, {"measurement": "Potency", "setting": "[8]", "result": "inconclusive: 9.76 µM [cytotoxic, partial curve, poor fit]"}, {"measurement": "Potency", "setting": "[3]", "result": "inconclusive: 23.9 µM [activator, partial curve, poor fit]"}]}, {"smiles": "[Cl][Pt-2]([Cl])([Cl])[Cl]", "values": [{"measurement": "Potency", "setting": "[1]", "result": "inconclusive: 55.2 µM [rising, partial curve, poor fit]"}, {"measurement": "Potency", "setting": "[5]", "result": "inconclusive: 55.2 µM [rising, partial curve, poor fit]"}]}, {"smiles": "COCC(=O)O[C@]1(CCN(C)CCCc2nc3ccccc3[nH]2)CCc2cc(F)ccc2[C@@H]1C(C)C", "values": [{"measurement": "Potency", "setting": "[1]", "result": "active: 5.35 µM"}, {"measurement": "Potency", "setting": "[4]", "result": "active: 21.3 µM"}, {"measurement": "Potency", "setting": "[6]", "result": "active: 21.3 µM"}]}, {"smiles": "CCC(C)N(C)C(=O)c1cc2ccccc2c(-c2ccccc2Cl)n1", "note": "(stereo not given)", "values": [{"measurement": "Potency", "setting": "[1]", "result": "inconclusive: 35.5 µM [cytotoxic, partial curve, poor fit]"}, {"measurement": "Potency", "setting": "[5]", "result": "inconclusive: 35.5 µM [cytotoxic, single point]"}]}, {"smiles": "O=C(NO)C1(NS(=O)(=O)c2ccc(Oc3ccc(F)cc3)cc2)CCOCC1", "values": [{"measurement": "Potency", "setting": "[1]", "result": "inactive"}, {"measurement": "Potency", "setting": "[5]", "result": "inconclusive: 21.9 µM [cytotoxic, partial curve]"}]}, {"smiles": "COc1ccc(Nc2ccc(OC)cc2)cc1", "values": [{"measurement": "Potency", "setting": "[1]", "result": "inconclusive: 19.9 µM [cytotoxic, partial curve]"}]}, {"smiles": "CCCCCCCCCCC=O", "values": [{"measurement": "Potency", "setting": "[1]", "result": "inactive"}]}, {"smiles": "c1ccc(CNc2ncnc3nc[nH]c23)cc1", "values": [{"measurement": "Potency", "setting": "[1]", "result": "inconclusive: 43.6 µM [cytotoxic, partial curve]"}, {"measurement": "Potency", "setting": "[5]", "result": "inconclusive: 24.5 µM [cytotoxic, partial curve]"}]}, {"smiles": "CCO/C([O-])=N/c1c[n+](N2CCOCC2)no1", "values": [{"measurement": "Potency", "setting": "[1]", "result": "inactive"}, {"measurement": "Potency", "setting": "[4]", "result": "inactive"}]}, {"smiles": "C/C(=C(/OCCOc1ccc(Cl)cc1)c1ccc(Cl)cc1Cl)n1ccnc1", "values": [{"measurement": "Potency", "setting": "[1]", "result": "inconclusive: 21.3 µM [cytotoxic, partial curve]"}, {"measurement": "Potency", "setting": "[5]", "result": "inconclusive: 23.9 µM [cytotoxic, partial curve]"}]}]}
